Test results taken from PubChem BioAssay AID624417 (National Center for Advancing Translational Sciences (NCATS), 2012).
Hit rate of the full screen: of about 410,000 compounds, about 6,400 (1.6%) were called active. Inconclusive means that the source gave no clear call. Such entries were picked first, then a sample of the others. Calls come from the whole dose curve; as a rule, active = well fitted inhibition curve with a large enough effect; inconclusive = small, poorly fitted or top-dose-only effect; inactive = no such curve, though single readings can be large or run the other way. Where the call is inconclusive, the potency comes from a doubtful curve fit.

target: Glucagon-like peptide 1 receptor (Homo sapiens) (UniProt P43220); assay: qHTS of GLP-1 Receptor Inverse Agonists (Inhibition Mode); settings: HEK293 GLP-1R CRE-luciferase, luminescence, 24 h, GLP-1R form is constitutively active; activity change, negative = inhibition: at 38.3 µM (top of the series) unless noted; note: nearly all actives have a fitted effect of over 55% in size
Chain of UniProt P43220 (P43220 whole entry, looked up): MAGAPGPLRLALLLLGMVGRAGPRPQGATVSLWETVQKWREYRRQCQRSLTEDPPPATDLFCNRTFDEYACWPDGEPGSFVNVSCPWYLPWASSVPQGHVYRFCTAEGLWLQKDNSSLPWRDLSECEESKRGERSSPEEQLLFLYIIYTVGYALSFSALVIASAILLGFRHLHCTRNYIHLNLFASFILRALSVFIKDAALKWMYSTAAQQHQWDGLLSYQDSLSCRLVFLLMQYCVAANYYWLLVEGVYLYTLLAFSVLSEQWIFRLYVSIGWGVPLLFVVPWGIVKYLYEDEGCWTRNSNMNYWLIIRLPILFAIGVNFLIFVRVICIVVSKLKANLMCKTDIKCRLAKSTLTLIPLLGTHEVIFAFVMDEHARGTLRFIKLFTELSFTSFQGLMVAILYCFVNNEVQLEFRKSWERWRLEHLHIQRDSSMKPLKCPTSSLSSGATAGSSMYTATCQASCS
Summary of the method: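 HEK293 cells stably co-expressing a cAMP-responsive luciferase reporter and constitutively active GLP-1R were seeded, incubated 12 h, then exposed to compounds for 24 h at 37 C. Luminescence was read 12 min after detection reagent; inverse agonists lower signal.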
% is set by controls: 0 for no effect and ±100 for the full control effect; potency is the fitted concentration of half-maximal effect; tags give direction and shape of the fitted curve.

Potency, inconclusive:
O=C(CN1CCN(S(=O)(=O)c2ccc(Cl)cc2)CC1)Nc1ccc(F)cc1F 12.6 µM [inhibitor, single point]
CCOc1cc(C(=O)O/N=C(\N)c2ccccn2)cc(OCC)c1OCC 14.1 µM [inhibitor, single point]
CCOC(=O)/C(=N\Nc1cccc(C(F)(F)F)c1)N(CCOC)CCOC 14.1 µM [inhibitor, single point]
CCN(CC)c1ccc(NS(=O)(=O)c2ccc3c(c2)CCCN3C(C)=O)c(C)c1 12.6 µM [inhibitor, single point]
Cc1ccnc(NC(=O)c2cccc(S(=O)(=O)Nc3ccc(C)cc3C)c2)c1 3.55 µM [inhibitor, partial curve, poor fit]
S=c1[nH]nc(-c2cc3ccccc3o2)n1Cc1ccccc1 20 µM [inhibitor, single point]
O[C@H]1CN(CC2CCCCC2)[C@@H](c2ccccc2)C[C@@H]1n1cc(C2CC2)nn1 28.2 µM [inhibitor, single point]
Cc1nc2c(-c3ccc(F)cc3)c(C)nn2c(C)c1CCC(=O)Nc1ccccc1 1 µM [inhibitor, full curve, poor fit]
Cc1noc(C)c1S(=O)(=O)Nc1ccc(C(C)C)cc1 12.6 µM [inhibitor, partial curve, poor fit]
O=C(Nc1ccccc1-c1ccccc1)c1ccccc1Br 12.6 µM [inhibitor, single point]
O=[N+]([O-])c1ccc(NCCNS(=O)(=O)c2ccccc2)c(C(F)(F)F)c1 12.6 µM [inhibitor, partial curve, poor fit]
Cc1ccc(C(C)C)c(OCCn2cc(C(=O)c3ccco3)c3ccccc32)c1 11.2 µM [inhibitor, single point]
Cc1ccc2nc(NC(=O)c3ccccn3)sc2c1 0.501 µM [inhibitor, full curve, poor fit]
CCc1ccc2[nH]c(=O)c(CN(CCCN3CCOCC3)C(=O)Nc3ccc(F)cc3)cc2c1 28.2 µM [inhibitor, single point]
CCOC(=O)c1c(NC(=O)CSc2nnnn2-c2ccccc2)sc2c1CC(C)(C)NC2(C)C 5.62 µM [inhibitor, partial curve, poor fit]
COc1ccc(NC(=O)c2cc(-c3cc(C)cc(F)c3)n[nH]2)cc1OC 0.891 µM [inhibitor, full curve, poor fit]
CCOC(=O)CCc1c(C)nc2c(c(C)nn2C(C)(C)C)c1C 31.6 µM [inhibitor, single point]
Cc1cccn2cc(-c3ccc(S(=O)(=O)N4CCCCC4)cc3)nc12 28.2 µM [inhibitor, single point]
COc1ccc(CCNC(=O)c2cc(Sc3cccc(Cl)c3)nc3ccccc23)cc1OC 28.2 µM [inhibitor, single point]
Cc1nc2c(ccc3nc(NC(=O)Cc4ccccc4)sc32)s1 28.2 µM [inhibitor, single point]
COc1cc(-c2nnc(CSc3nnc(Nc4ccc(C(C)C)cc4)s3)o2)cc(OC)c1OC 10 µM [inhibitor, partial curve, poor fit]
O=C(NCCCN1CCN(c2ccc(F)cc2)CC1)C1CCCN(c2ncnc3c2nc2n3CCCCC2)C1 (configuration not stated) 28.2 µM [inhibitor, single point]
COc1cc2ccccc2cc1C(=O)N(CCN(C)C)c1nc2ccc(Br)cc2s1 6.31 µM [inhibitor, partial curve, poor fit]
COc1ccc(C(=O)NCC2CCCCC2)cc1S(=O)(=O)N1CCOCC1 20 µM [inhibitor, partial curve, poor fit]
COc1cccc(C(=O)N2c3ccccc3Sc3ccccc32)c1 1.78 µM [inhibitor, single point]
C=C(C)c1cccc(C(C)(C)NC(=O)Nc2ccc(C(N)=O)cc2)c1 7.94 µM [inhibitor, partial curve]
COc1ccccc1N1CCN(S(=O)(=O)c2ccc(F)c(C(=O)Nc3ccc(C)c(F)c3)c2)CC1 11.2 µM [inhibitor, partial curve, poor fit]
COc1ccccc1C(C)NC(=O)c1cc(S(=O)(=O)N2CCCCC2)ccc1C (configuration not stated) 17.8 µM [inhibitor, partial curve, poor fit]

Potency, active:
Cc1ccc(/C=N/N(C)S(=O)(=O)c2ccc(C)cc2)cc1 10 µM
CC(C)(C)C(=O)CSc1ncnc2c1cnn2Cc1ccccc1 3.55 µM
CCCOC(=O)/C(=C\C=C\c1ccccc1)NC(=O)c1ccccc1 2.51 µM

Activity change, negative = inhibition, inactive:
O=C(c1cc(COc2cccc(C(F)(F)F)c2)on1)N1CCCC1 -5.76%
C[C@H]1CCC[C@@]2(O[C@@H](CCO)C[C@H](O)[C@H]2O)O1 2.15%
O=C(N/N=C/C=C\c1ccco1)c1cccnc1 7.68%
COCCNC(=O)c1noc2c1CCc1cc(OC)ccc1-2 0%
Cc1cccc(OCC(=O)OCC(=O)N(CC(C)C)c2c(N)n(Cc3ccccc3)c(=O)[nH]c2=O)c1C -0.68%
O=C(C1CCN(S(=O)(=O)c2cccc3cccnc23)CC1)N1CCCC1 -7.43%
CCN(CC)c1ccc(CNc2nc3ccccc3n2C)cc1 -20%
COc1ccc2c(c1)CC(C(=O)N1CCC(C(N)=O)CC1)CO2 (configuration not stated) 8.74%
S=C(Nc1ccc2c(c1)OCO2)N1CCN(Cc2ccco2)CC1 -5.64%

Activity change, negative = inhibition, inconclusive:
COC(=O)c1ccc(CN(c2ccc(C(=O)O)c(O)c2)S(=O)(=O)c2ccc(Cl)c([N+](=O)[O-])c2)cc1 -40.1% [inhibitor]
CC(C)(C)NS(=O)(=O)c1ccc2[nH]c3c(c2c1)CCCCC3 -85.5% [inhibitor]
